# Reference: PubChem BioAssay AID504937 (National Center for Advancing Translational Sciences (NCATS), 2011)
# About 20 (0.006%) of roughly 340,000 compounds were called active. This list was built around the results that the source calls inconclusive (neither active nor inactive); the mix of calls is not that of the screen. Calls come from the whole dose curve; as a rule, active = well fitted inhibition curve with a large enough effect; inconclusive = small, poorly fitted or top-dose-only effect; inactive = no such curve, though single readings can be large or run the other way. Potencies of inconclusive entries are doubtful fits and often do not repeat.
# Molecular target: Sphingomyelin phosphodiesterase (Homo sapiens) (UniProt P17405)
# UniProt P17405, sequence (P17405 whole entry, looked up): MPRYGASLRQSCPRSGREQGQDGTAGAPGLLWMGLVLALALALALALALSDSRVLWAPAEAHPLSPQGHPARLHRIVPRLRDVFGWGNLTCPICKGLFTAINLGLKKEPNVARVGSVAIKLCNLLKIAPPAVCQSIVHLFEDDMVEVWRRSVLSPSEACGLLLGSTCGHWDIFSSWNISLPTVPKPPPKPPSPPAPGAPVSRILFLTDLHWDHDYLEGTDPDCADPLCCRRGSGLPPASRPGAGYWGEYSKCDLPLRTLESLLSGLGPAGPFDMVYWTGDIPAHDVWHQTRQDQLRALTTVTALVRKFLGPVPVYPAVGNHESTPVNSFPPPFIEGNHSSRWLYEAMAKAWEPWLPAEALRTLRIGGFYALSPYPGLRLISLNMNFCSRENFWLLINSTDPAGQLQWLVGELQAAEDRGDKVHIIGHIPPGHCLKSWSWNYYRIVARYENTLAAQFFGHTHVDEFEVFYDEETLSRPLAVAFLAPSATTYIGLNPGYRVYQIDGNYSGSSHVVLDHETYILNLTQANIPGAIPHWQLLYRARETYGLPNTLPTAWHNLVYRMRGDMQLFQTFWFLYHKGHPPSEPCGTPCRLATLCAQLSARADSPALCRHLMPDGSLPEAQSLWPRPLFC
# Assay: Inhibitors of Secretory Acid Sphingomyelinase (S-ASM): qHTS
# Settings: placental ASM, HMU-PC fluorogenic substrate (series up to 57.5 µM), 60 min
# Description: Atherosclerosis is the underlying process for cardiovascular disease and thus is a major contributor to disease burden in the population. […] Thus, selective small molecule inhibitors of S-ASM should block LDL modification and reduce aortic LDL retention and may serve as new agents for the treatment of atherosclerosis. In a collaboration between National Heart, Lung, and Blood Institute and the NCGC a high-throughput amenable screen was developed to identify potent and selective small molecule inhibitors of S-ASM. This enzymatic, fluorescent screen uses an ASM enzyme preparation derived from human placenta and was tested against the NIH Molecular Libraries Small Molecule Repository (MLSMR). NIH Chemical Genomics Center [NCGC] NIH Molecular Libraries Probe Centers Network [MLPCN] MLPCN Grant: MH093173-01 Assay Submitter (PI): Alan Remaley, National Heart, Lung, and Blood Institute and Wei Zhen, NIH Chemical Genomics Center
# Two microliters of ASM enzyme (1:150 dilution from stock) are dispensed in 1536-well plate. 23 nL of compound and control are pinned into assay plate using the Kalypsys pintool. The plates are then incubated for 10 minutes at ambient room temperature. Then, 2 uL of the flurogenic substrate, HMU-PC0, (9 uM final) are added to the plate. An incubation for 60 minutes takes place at 37 masculineC. After that, 4 uL of stop solution is added to raise the pH to 10 to end the kinetic reaction. Plate is read on ViewLux, with detection set at Ex = 386 (10) nm and Em = 447 (10) nm.
# Potency is the fitted concentration of half-maximal effect; tags give direction and shape of the fitted curve.
row,SMILES,Potency
1,CC(=O)c1c(C)nc2ccccc2c1N,inactive
2,Cc1cc(Nc2cccc(Cl)c2)nc(-c2ccccc2O)n1,"inconclusive: 79.4 µM [inhibitor, single point]"
3,CCN(CC)CCN1C(=O)C(=O)/C(=C(/O)c2ccc(S(=O)(=O)N3CCOCC3)cc2)C1c1ccccc1 (stereo not given),"inconclusive: 224 µM [inhibitor, partial curve, poor fit]"
4,O=C(Nc1nccs1)c1cccc2ccccc12,inactive
5,CC(=O)Oc1ccc2c(c1)CCC1C2CCC2(C)C(OC(C)=O)CCC12 (stereo not given),"inconclusive: 79.4 µM [inhibitor, single point]"
6,C=CCSc1nsc(NC(=O)Nc2cccc(C(C)=O)c2)n1,"inconclusive: 100 µM [inhibitor, partial curve, poor fit]"
7,Cc1[nH]n(-c2ccc([N+](=O)[O-])cc2)c(=O)c1C=NCCN1CCN(C(=O)C(C)C)CC1,inactive
8,COc1ccc(N2CCN(C(=O)CN(c3cccc(OC)c3)S(=O)(=O)c3ccccc3)CC2)cc1,"inconclusive: 708 µM [inhibitor, partial curve, poor fit]"
9,CCOc1ccc(CCN2C(=S)N([C@@H](Cc3ccc(O)cc3)CN3CCCC3CN3C(=S)NC[C@@H]3Cc3ccc(O)cc3)C[C@@H]2CC(C)C)cc1 (stereo not given in full),"inconclusive: 89.1 µM [inhibitor, single point]"
10,CCN(CC)CCN1C(=O)/C(=C\c2ccc(Cl)c([N+](=O)[O-])c2)SC1=Nc1ccc(OC)cc1,"inconclusive: 70.8 µM [inhibitor, single point]"
11,O=C(COC(=O)Cc1ccccc1F)Nc1ccc(Cl)cn1,inactive
12,Cc1noc(C)c1COc1ccccc1C(=O)N(C)CC(=O)Nc1ccc(Cl)c(Cl)c1,"inconclusive: 89.1 µM [inhibitor, partial curve]"
13,Cc1ccc(NC(=O)c2ncn(CCCN(CCCn3cnc(C(=O)Nc4ccc(C)c(C)c4)n3)Cc3ccc4[nH]ccc4c3)n2)cc1C,"inconclusive: 100 µM [inhibitor, partial curve, poor fit]"
14,COc1ccc2[nH]c(C)c(CCNc3ccc(C(F)(F)F)cc3[N+](=O)[O-])c2c1,"inconclusive: 501 µM [inhibitor, partial curve, poor fit]"
15,Cn1nc(C(F)(F)F)c(C(=O)Nc2cccc(C(F)(F)F)c2)c1SCc1ccc(Cl)cc1,"inconclusive: 141 µM [inhibitor, partial curve, poor fit]"
16,COc1ccc(CN2CNc3nc4ccccc4n3C2)cc1,inactive
17,COc1ccc(NC(=O)Nc2cccc3c2O[C@H](CN(C)S(=O)(=O)c2ccc(OC)cc2)[C@@H](C)CN([C@H](C)CO)C3=O)cc1,"inconclusive: 100 µM [inhibitor, single point]"
18,CS(=O)(=O)N(Cc1ccc(Cl)cc1)c1ccc(C(=O)NCCSCc2ccco2)cc1,"inconclusive: 112 µM [inhibitor, partial curve, poor fit]"
19,CCN1CCC(O)(/C=C/c2ccc(C(C)C)cc2)C(C(=O)/C=C/c2ccc(C(C)C)cc2)C1 (stereo not given),"inconclusive: 63.1 µM [inhibitor, single point]"
20,COc1ccc(-c2noc(CCCCC(=O)N3CCN(c4cc(C)ccc4C)CC3)n2)cc1,inactive

row,SMILES,Potency
1,CC(=O)Nc1ccc(S(=O)(=O)N2CCSC2c2ccc(Cl)cc2)cc1 (stereo not given),"inconclusive: 282 µM [inhibitor, partial curve, poor fit]"
2,O=C(Nc1c(Cl)cc2c(c1Cl)Cc1cc([N+](=O)[O-])ccc1-2)C(Cl)Cl,inactive
3,CC1(C)Cc2c(sc(NC(=O)COc3cccc4ccccc34)c2C#N)C(C)(C)N1,"inconclusive: 100 µM [inhibitor, partial curve, poor fit]"
4,O=C(Nc1cccc(-c2ccccc2)c1)N1CCN(C(=O)Nc2cccc(-c3ccccc3)c2)CC1,inactive
5,COc1ccc(Cl)cc1NC(=O)CSc1nc(Nc2ccccc2)nc(N2CCOCC2)n1,"inconclusive: 447 µM [inhibitor, partial curve, poor fit]"
6,CCOC(=O)N1CCN(c2cc(C)c(C(C)=O)cc2F)CC1,inactive
7,COc1ccc(C(C(=O)Nc2ccc(F)cc2)N(C(=O)Cn2nnc3ccccc32)C2CC2)cc1 (stereo not given),"inconclusive: 316 µM [inhibitor, partial curve, poor fit]"
8,O=S(=O)(c1ccccc1)c1nc(NCc2ccccc2)sc1Cl,"inconclusive: 200 µM [inhibitor, partial curve, poor fit]"
9,COc1ccc(-c2noc3c2-c2nc(-c4ccccc4F)sc2CC3)cc1,"inconclusive: 224 µM [inhibitor, partial curve, poor fit]"
10,Nc1nc(Nc2ccccc2)nc(NCc2ccco2)c1[N+](=O)[O-],"inconclusive: 89.1 µM [inhibitor, single point]"
11,CCOC(=O)c1[nH]c(Cc2[nH]c(C(=O)OCC)c(C)c2CCC(=O)OC)c(CCC(=O)OC)c1C,"inconclusive: 355 µM [inhibitor, partial curve, poor fit]"
12,CC1CCCCN1c1nnc(NC(=O)c2cc(-c3ccc(Br)cc3)on2)s1 (stereo not given),"inconclusive: 112 µM [inhibitor, partial curve, poor fit]"
13,Cc1cc(C)n2c(SCc3ccccc3Cl)nnc2n1,inactive
14,COc1cc(OC)cc(C2C(C#N)=C(N)Oc3n[nH]c(-c4cccnc4)c32)c1 (stereo not given),inactive
15,COCc1nnc(NC(=O)c2ccc(OC)cc2OC)s1,inactive
16,COc1ccc(C2=NS(=O)(=O)N(C)C(C(=O)N3CCC(C)CC3)=C2)cc1,inactive
17,Nc1nn2c(-c3ccccc3)cc(=O)[nH]c2c1N=Nc1ccc(Br)cc1,"inconclusive: 158 µM [inhibitor, partial curve, poor fit]"
18,COC(=O)c1ccc(C2C(C(=O)OCC(C)C)=C(C)N=C3SCCC(=O)N32)cc1 (stereo not given),"inconclusive: 251 µM [inhibitor, partial curve, poor fit]"
19,CCOc1nc(-c2ccccc2O)nc2ccccc12,inactive
20,CCOC(=O)/C(C#N)=C1/C=CN(c2ccccc2)C=N1,inactive
